Laboratory results published in publication PMC4336329 (PLoS ONE, 2015).
In all, about 310,000 compounds went through this assay and about 2,200 (0.71%) showed an effect of 50% or more. Effects have a minus sign here. The list shows a part of the results.

Target: human ether-à-go-go-related gene (hERG) potassium channel (human, UniProt Q12809)
Assay: primary screen, population patch clamp on CHO cells stably expressing hERG

Sequence of human ether-à-go-go-related gene (hERG) potassium channel (Q12809 whole entry, looked up): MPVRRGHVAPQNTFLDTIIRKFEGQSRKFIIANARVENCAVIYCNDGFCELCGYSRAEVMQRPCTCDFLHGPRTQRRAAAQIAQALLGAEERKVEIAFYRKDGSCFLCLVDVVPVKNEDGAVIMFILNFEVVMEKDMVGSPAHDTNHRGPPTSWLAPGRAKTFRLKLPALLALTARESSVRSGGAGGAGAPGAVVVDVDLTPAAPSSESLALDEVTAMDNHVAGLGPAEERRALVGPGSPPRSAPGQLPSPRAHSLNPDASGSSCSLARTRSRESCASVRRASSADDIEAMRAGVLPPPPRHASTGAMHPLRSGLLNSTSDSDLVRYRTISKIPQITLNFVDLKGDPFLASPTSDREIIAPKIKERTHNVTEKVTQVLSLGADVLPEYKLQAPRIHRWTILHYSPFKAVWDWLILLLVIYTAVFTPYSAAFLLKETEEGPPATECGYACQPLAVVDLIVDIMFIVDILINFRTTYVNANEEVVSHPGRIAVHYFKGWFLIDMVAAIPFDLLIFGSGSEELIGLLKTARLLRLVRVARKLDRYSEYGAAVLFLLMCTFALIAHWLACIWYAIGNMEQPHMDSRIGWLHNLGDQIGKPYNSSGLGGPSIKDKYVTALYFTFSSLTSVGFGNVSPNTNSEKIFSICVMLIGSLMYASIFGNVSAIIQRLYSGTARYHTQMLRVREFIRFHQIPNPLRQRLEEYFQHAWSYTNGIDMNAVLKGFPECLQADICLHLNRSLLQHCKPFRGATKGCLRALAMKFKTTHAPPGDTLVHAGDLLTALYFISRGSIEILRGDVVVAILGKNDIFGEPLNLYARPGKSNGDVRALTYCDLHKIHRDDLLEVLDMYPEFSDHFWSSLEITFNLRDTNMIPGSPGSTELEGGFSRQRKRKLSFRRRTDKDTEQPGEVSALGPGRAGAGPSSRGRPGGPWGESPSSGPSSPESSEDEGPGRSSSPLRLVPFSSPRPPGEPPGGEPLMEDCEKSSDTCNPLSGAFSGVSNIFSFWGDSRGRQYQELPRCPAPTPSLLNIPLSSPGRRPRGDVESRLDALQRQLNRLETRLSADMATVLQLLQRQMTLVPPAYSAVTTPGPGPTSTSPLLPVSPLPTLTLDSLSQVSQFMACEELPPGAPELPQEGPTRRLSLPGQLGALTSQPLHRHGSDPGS

SMILES	hERG current change (%, negative = inhibition) at 1uM [%]
CCCCC(=O)Nc1ccc(Br)cn1	6.44
COc1ccc(NC(=O)CN(C)C(=O)c2cc(CN3C(=O)c4ccccc4C3=O)ccc2OC)cc1	-3.11
C/C(=N\OCC(=O)N/N=C/c1ccc(C)cc1O)c1cccs1	9.1
COc1cccc(-c2nc(CS(=O)(=O)CC(=O)NC3CCCc4ccccc43)c(C)o2)c1 (centres unmarked)	13.2
CC(=O)Nc1ccc(S(=O)(=O)NCC2CCC(C(=O)NCCCOC(C)C)CC2)cc1 (centres unmarked)	15.8
COc1ccc(/C=C/C(=O)NC(=S)Nc2ccc(S(N)(=O)=O)cc2)cc1OC	16.9
CCS(=O)(=O)N1CCC(C(=O)Nc2cc(C)ccc2O)CC1	10.9
COc1ccc([C@H]2CC(=O)C=C(c3ccc(C)c4ccccc34)C2)cc1	16.2
CC(=O)N(CC(=O)O)c1ccccc1	8.85
O=C(Nc1nc2ccc(F)cc2s1)c1ccccn1	9.3
COc1ccc(C(=O)NCCS(=O)(=O)NCc2ccc3c(c2)OCO3)cc1	10.7
Cc1cc([N+](=O)[O-])nn1CC(=O)NCc1ccco1	6.14
Cc1c(Cl)cccc1NC(=O)CN1CCN(CCO)CC1	7.01
CCCS(=O)(=O)N1CCC(C(=O)NCCCOCC)CC1	8.29
Fc1ccc(-n2cc(CNCCc3ccccn3)c(-c3ccccc3Cl)n2)cc1	-78.2
COc1ccc(C(=O)Nc2ccc3ccccc3c2)cc1OC	5.81
COC(=O)Nc1ccc(S(=O)(=O)NCCCCCC(=O)O)cc1	-10.1
O=C(NCc1ccco1)[C@@H]1CCCN1C(=O)c1cccs1	0.875
Cc1nc(N2CCOCC2)nc(OCCN2CCOCC2)c1[N+](=O)[O-]	6.76
O=C(c1ccccc1Br)N1CCCC(c2nc(-c3cccs3)no2)C1 (centres unmarked)	13.2
CS(=O)(=O)c1ccc(NC(=O)CCCc2nc3ccccc3c(=O)[nH]2)cc1	14.9
CCN(Cc1ccc(C#CCCO)cc1)CC1CCCN(CCc2cccc(F)c2)C1 (centres unmarked)	-8.19
Cc1cc(=O)n2[nH]cnc2n1	8.28

SMILES	hERG current change (%, negative = inhibition) at 1uM [%]
Cn1c(=O)oc2cc(S(=O)(=O)N3CCN(C(=O)c4ccco4)CC3)ccc21	-1.41
C=CCC(NCc1ccccc1)c1ccccc1 (centres unmarked)	5.56
CC1(C)Cc2cccc(OCC(=O)N3CCN(c4ccccc4Cl)CC3)c2O1	0.729
O=C(CCCN1C(=O)c2ccccc2C1=O)N1CCCCC1	11.8
CN(C)Cc1c(O)ccc2occ(C(=O)c3ccccc3)c12	-16.4
O=C(C1CCCO1)N1CCN(c2ccccn2)CC1 (centres unmarked)	6.36
CC(C)C(=O)Nc1ccccc1N1CCN(C(=O)c2ccccc2)CC1	5.76
CCCc1nn2c(=O)cc(CSCC(=O)Nc3nnc(C(C)C)s3)nc2s1	6.33
CCOC(=O)C1CCN(C2=NC(=O)/C(=C/c3ccc(Cl)cc3)S2)CC1	-13.1
CS(=O)(=O)N(CC(=O)Nc1ccc(Br)cc1)C1CCCCC1	6
COc1ccc(/C=N/NC(=O)CSc2n[nH]c(=O)[nH]c2=O)cc1	12.5
CCC(=O)N1CCc2cc(S(=O)(=O)CCC(=O)Nc3ccc(CC)cc3)ccc21	18.2
CCN(CC(=O)NCc1cccs1)C(=O)C1CC(=O)N(c2ccc(OC)cc2OC)C1 (centres unmarked)	8.27
Clc1ccc(Cl)c(-c2nc(-c3ccncc3)no2)c1	15.3
COCCCn1c(SCc2nnc(-c3ccccc3)o2)nc2sc3c(c2c1=O)CCC3	10.3
CNC(=O)c1cc(S(=O)(=O)N(C)C)ccc1Cl	1.15
COc1cccc(N2CC(NC(=O)c3ccc4ccccc4c3)CC2=O)c1 (centres unmarked)	5.06
COc1ccccc1C(=O)C1CCCN(C(=O)c2ccco2)C1 (centres unmarked)	23.9
CSCCC(NC(=O)c1ccc([N+](=O)[O-])cc1Cl)C(=O)OCC(=O)NC(=O)CN1CCCC1=O (centres unmarked)	22.1
COc1cc(N)c(Cl)cc1C(=O)OC(C)C(=O)Nc1cccc(S(=O)(=O)N2CCOCC2)c1 (centres unmarked)	16.1
CCC(C)NC(=O)C1CCN(S(=O)(=O)c2ccc(Br)s2)CC1 (centres unmarked)	3.49
[Cl-].c1ccc(C[n+]2cccc3c4ccccc4ccc32)cc1	-2.14
O=C(NC1CCCC1)c1ccc(Cl)s1	8.66

SMILES	hERG current change (%, negative = inhibition) at 1uM [%]
CCC(=O)Nc1ccc(NC(=O)CCc2ccccc2)cn1	10.4
CCCCCCCCNC(=O)C(CCC(=O)OCc1ccccc1)NC(C)=O (centres unmarked)	6.41
Cc1cc(N2CCN(C(=O)c3cccs3)CC2)c(F)cc1[N+](=O)[O-]	-7.39
CCOC(=O)c1cnc2ccc(OC)cc2c1NCCN1CCOCC1	-13.3
COc1ccc2c(c1)CCCN2C(N)=O	12.3
C=CCNC(=O)CSc1ccc(Cl)cc1	13.7
O=C(NNC(=O)c1cc2ccccc2cc1O)Nc1ccc(F)cc1F	7.74
O=C1CCCC/C1=C\Nc1ccc(O)cc1	8.6
COc1ccc(CNC(=O)CC2Sc3ccccc3NC2=O)cc1 (centres unmarked)	15.1
CCOC(=O)C1=NOC2C(=O)N(c3ccc(Cl)cc3Cl)C(=O)C12 (centres unmarked)	12
COc1ccc(NC(=O)CSc2nnnn2C)cc1	2.08
CC1CCCCC1NC(=O)CN1CCC(O)(c2ccc(F)cc2)CC1 (centres unmarked)	-0.99
Cc1ccc(C(=O)NCC(=O)OCCOc2ccccc2Cl)cc1	13.4
COc1ccc(Nc2nc(Nc3ccc(OC)cc3OC)nc(N3CCN(C)CC3)n2)c(OC)c1	4.41
O=[N+]([O-])c1ccc(OCCOCCOc2ccc([N+](=O)[O-])cc2)cc1	3.57
CC(C)c1ccc(O)c(NC(=S)NC(=O)c2cccnc2)c1	6.8
COc1cccc(C(=O)Nc2cc3c(cc2Br)OCCCO3)c1	7.86
CCCCC1CCC(C(=O)OC(C)C(=O)Nc2ccc(NC(C)=O)cc2)CC1 (centres unmarked)	10.1
CC(C)(NO)/C(=N/O)c1cccs1	-5.45
COc1ccc(-c2nc(=S)[nH][nH]2)cc1	11.2
O=C(Nc1ccc(Br)cc1)C1CC(c2c(F)cccc2Cl)=NO1 (centres unmarked)	3.84
S=C(Nc1ccccc1)N1CCN(C(=S)Nc2ccccc2)CC1	13.9
CCOC(=O)C(=O)Nc1nc(-c2ccc3c(c2)CCN3C(=O)C2CC2)c(C)s1	13.8

SMILES	hERG current change (%, negative = inhibition) at 1uM [%]
CN1C(=O)/C(=C/c2ccc(N3CCCCCC3)o2)C(=O)NC1=S	1.53
O=C(O)CCC(=O)NCc1cn(-c2ccccc2)nc1-c1cccc(Br)c1	9.76
COc1ccc(OC)c2[nH]c(C(=O)O)cc12	14.5
Cc1cccc(Nc2nnc(SCC(=O)NC3CCCc4ccccc43)s2)c1 (centres unmarked)	2.32
CCOC(=O)C1=C(c2ccccc2)NC(=O)NC1c1ccc(OC)cc1OC (centres unmarked)	6.74
COCCN1C(=O)C(=O)/C(=C(/O)c2ccc(S(=O)(=O)N3CCCCC3)cc2)C1c1ccc(O)c(OC)c1 (centres unmarked)	15
S=C(NCc1ccco1)N1CCN(Cc2ccco2)CC1	11.1
CC1CC(C)CN(S(=O)(=O)c2ccc(F)c(C(=O)Nc3ccc(Cl)cc3F)c2)C1 (centres unmarked)	12.6
Cc1ccc(NC(=O)Cc2noc3ccccc23)cc1	19.3
CS(=O)(=O)N(CC(=O)Nc1ccccc1)c1cccc(Cl)c1Cl	9.78
CCOc1ccc(C(C)NC(=S)NCc2ccc(F)cc2)cc1 (centres unmarked)	9.89
O=C(Nc1cccc(NC(=O)c2ccccc2Cl)c1)c1ccc(F)cc1	7.98
O=C(CCN1C(=O)c2cccc3cccc(c23)C1=O)Nc1ccccc1	9
CCOC(=O)c1sc2nc(C)nc(N3CCN(c4ncccn4)CC3)c2c1C	9.37
CCC(C)N1C(=O)S/C(=C/c2ccc(N3CCOCC3)cc2C)C1=O (centres unmarked)	12.5
CCn1c(-c2cc(-c3ccccc3OC)nc3ccccc23)n[nH]c1=S	0.836
CCOC(=O)c1ccc(NC(=O)CN2C(=O)NC3(CCCCCCC3)C2=O)cc1	15.6
NC(=O)C1CCN(C(=O)C2CCC(=O)N(CC3CCCCC3)C2)CC1 (centres unmarked)	7.13
Cc1ccc(C(CC(=O)O)C2CCOC(C)(C)C2)cc1 (centres unmarked)	10.4
COc1ccccc1C(OC(=O)c1cccs1)C(=O)NCC1CCCO1 (centres unmarked)	9.96
Cc1cccc(N2C(=O)C3CCCN3C2=S)c1C (centres unmarked)	9.81
CCOC(=O)c1c(/N=C/c2cc(OC)cc([N+](=O)[O-])c2O)sc(C)c1C	11.7
O=C(Nc1ccccc1[N+](=O)[O-])c1cccc(N2C(=O)CCC2=O)c1	12.3
